In the RNAGym collection of RNA variant scans (doi:10.1093/nar/gkz1192) one finds self-cleavage data, which are given here for 167 variants.

First the molecules themselves.
B1: CPEB3 Ribozyme (parent)
chain: UAACAGGGGGCCACAGCAGAAGCGUUCACGUCGCAGCCCCUGUCAGAUUCUGGUGAAUCUGCGAAUUCUGCUGUAUAUCUC

Read counts are not given, so values of variants with three or more changes are uncertain.

In the series the parent is B1. Kind of series: self-cleavage, relative activity (ratio to wild type); higher = more cleavage; in vitro, sequencing. The procedure, abridged: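 Relative activity compares each variant's cleaved/total read fraction with that of the unmutated ribozyme. To get these fractions, barcoded CPEB3 ribozyme libraries from rounds of error-prone PCR were transcribed with T7 RNA polymerase for 5 hours at 37°C and then given 15 min of DNase I treatment before EDTA was added. The RNAs were reverse transcribed with template switching and sequenced on Illumina, and DNA sequencing linked barcodes to variants. A minimum of 5 reads applied, and three batches were averaged.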
Consider U31G A35G U43C U51A U54C U60C, for which the self-cleavage stood at 0.28.
To A35G G36A A47C U49C U60G belongs 0.08.
To A35G C40U U51C U67C U74C belongs 0.49; to U31C U49G A57G U72A, 0.25.
To U31C U43G U54C U66C U78C belongs 0.28.
As to A35G G46A U54A, the self-cleavage turned out to be 1.03.
Regarding U31A U49C A64G, the self-cleavage was found to be 0.14.
A35G A57G A75G U80C: the self-cleavage was 1.22.
To U31C G33A U72C belongs 0.15.
To A35G U43C C44U U69C belongs 0.23; to U31C C71G A75U, 0.57.
To A35G A47G C79U belongs 1.32.
As to A35G G46U A57G, the self-cleavage is 0.33.
To C34A U43C A56U A65G belongs 0.13; to U31C U54G A64U, 0.16; to A35G A47G U58C, 1.27.
To U31C C32U U67C belongs 0.31; to G33A U51C A56G A77G, 0.17; to U31C U51A U54C U74C, 0.91.
As to A35G C50U U54A, the self-cleavage came to 1.2.
In the case of C32U C40G U43A A57G U58C, the self-cleavage turned out to be 0.11.
To A35G U43G U80G belongs 0.08.
As to U31G C32U U54A, the self-cleavage was 0.27.
To U31A U41G U51C U76A A77U belongs 0.08; to U31C A65G U74A, 0.57; to C34U U41C A77U U78C, 0.24.
Take A35G U41C U43A G61A: the self-cleavage was found to be 0.36.
With U31G A45C U60C A64U U67C A75U, the self-cleavage is 0.07.
To U31C A35G C37A U58C C62U U80C belongs 0.08.
As for A35G U49C U58A, the self-cleavage is 0.39.
As for U31C U69A U72C U78C, the self-cleavage was 0.23.
To G33A G36A U41A A47U C62A U80C belongs 0.1; to A35C A64G U69C, 0.23.
Consider C32A U58A G63A A64G U69C U80A, for which the self-cleavage was 0.14.
As for G33A A35U C38A U80A, the self-cleavage is 0.13.
To A35G A45C U51G belongs 1.05; to U31A U41G A56G U60C A64G U76C, 0.03; to C34A U54A A65G U66C, 0.18.
To A35G A75G U78A belongs 1.31.
To U31A U48C U54G A56C U66A U72A belongs 0.09.
Consider U31A U41C U48C, for which the self-cleavage is 0.19.
To U31C A35U U60C U69A belongs 0.14; to U31C G33A A35G U58A C62U U78G, 0.13.
To U31A U43C U74C belongs 0.5.
To A35G G52A A64U G70A U80A belongs 0.45; to U31C U43C U58C C81U, 0.11; to A35G U51C C62A, 0.48.
For A35G A47G U49A, the self-cleavage was determined as 1.
To C34G A56G U78A belongs 0.1; to C34G C40A A47G U51C U60C A64G, 0.06.
To U31G A35G G36A A56G belongs 0.31.
To U31C U48C U69A belongs 0.18.
As to G33U A47G U58C U60A U67A, the self-cleavage turned out to be 0.16.
To U31C U43C U49C U80C belongs 0.09; to U31A U69A U80C, 0.41; to C34U A57G A75G, 0.45.
To C34U U48C U69C belongs 0.09; to U31C C37U U43C A45G U51C U80C, 0.07; to G33A C37U U41C, 0.2.
To A35G A47G U69C U78C belongs 1.05; to G33C A35G U48C U54A U60C U66C A75G, 0.12.
As for C32A C38G A47G U48C, the self-cleavage was found to be 0.11.
To U31G U69C G70A belongs 0.15; to C34G U54C A57G, 0.14.
To A35C U41C U66A U72C belongs 0.5.
To G33A A35U G42A A64U belongs 0.14; to U31C U60A U67C C71A, 0.23; to U31C A47G C50U U60C U76C, 0.11.
For A35G U41C U51A, the self-cleavage came to 1.21.
Turning to U31C A35G U49C, the self-cleavage came to 0.35.
Turning to C32G U48A U54A U72A U76A, the self-cleavage stood at 0.13.
U31C U69A U78A: the self-cleavage was determined as 0.22.
With U31A U43A U48C U49C, the self-cleavage was found to be 0.19.
To G33A U43C A45G belongs 0.5.
With C32U U51G U58C U69C, the self-cleavage worked out at 0.14.
Consider A35G A56G C81A, for which the self-cleavage stood at 1.3.
For A35C A56C U69C U78C, the self-cleavage amounted to 0.23.
To U31C U41C A56U U74A belongs 1.04; to A35G U54C U80C, 1.28.
As for A35G U41C U49C, the self-cleavage was 1.05.
To U31C U67A U72A U80C belongs 0.19; to A35G U54A U78C, 1.25.
Turning to A35G U54A U78A, the self-cleavage stood at 1.29.
To A35G A45G A64G belongs 1.25; to U31G U54C U66C U67C, 0.26.
To U31C U49C A57G U66C belongs 0.34; to U31C A35G U41C U54C A64G, 0.42.
To U31C A35G U41A U49A U67C U74G belongs 0.06.
A35G A65G U67A: the self-cleavage was determined as 0.77.
To G33C U48A U60G belongs 0.09; to U31C A45U U66A, 0.18.
To G33A G53A U60G belongs 0.12; to U31C C39G U51C U69A C71G, 0.07; to A35G G42U C71A, 0.12.
To U31A U41C U43C G53A belongs 0.3; to U31C C32G C38U U69C, 0.05.
Regarding U31G C44G U76A U78C, the self-cleavage is 0.
To C34A A47G U80C belongs 0.26; to C32G U41A U58C, 0.33.
To A35G U51C U78C belongs 1.26; to A35G U48C U67C, 0.52; to C32U U54C U60A C62A, 0.13.
To C32U C38U U41A A56G belongs 0.13; to U31C G53U A64U, 0.28; to A35G C38A C71A, 0.27.
As for U31C C37A A77G U78A, the self-cleavage was 0.19.
To A35G U43C U51C A64G U76C belongs 1.08; to C32A G33A C37A U41A U67C U72C, 0.1; to U31C A35G G53U A57G, 1.21.
On to U31C U43C G63U U66C U69C, for which the self-cleavage was 0.08.
Consider G33C G46U G63A A65G, for which the self-cleavage worked out at 0.05.
As for U31C A35G U60C U69A C79A, the self-cleavage came to 0.46.
Turning to A35G A45G G55C A57G U66A A75U U78C, the self-cleavage came to 0.75.
In the case of U31G C34U C37U G61U U66C, the self-cleavage is 0.06.
To A35G U51C A57G U78A U80C belongs 1.3; to G33C U60A U72C, 0.21.
To U31A U51C A57G belongs 0.4.
To U31C A35G U48C U49C U54C U72A U74A belongs 0.17; to G33A A45G A56U, 0.31.
As to A35G U43C U72C, the self-cleavage worked out at 1.23.
To A35G C40A A45G belongs 0.63; to A35G U41C G55C, 1.13; to C34A G61C U67C, 0.12.
To C32A U51C G53A A56U U58G U80A belongs 0.06; to U31C A45G U66A, 0.13; to G33A U60C U67C, 0.08.
To A35G A56G U78C belongs 1.29.
As for U31G A35G U41A A47G U72C, the self-cleavage is 0.15.
To U31A U49C U72G belongs 0.49.
To C32U U41A A56U belongs 0.14.
To U31C A57C U58A belongs 0.11.
As to G33U A64U U66C, the self-cleavage worked out at 0.19.
To U31C U51C U58G U67C belongs 0.15.
To U31C C40A U41C C62U U67C belongs 0.07; to A35G U41A U48C G63A U72C, 0.2; to U31C A35G U49C U60C U72C, 0.09.
U31C A56U U58G: the self-cleavage was 0.1.
To U31C U51C C68U belongs 0.6; to A35G U41A A45U U54A, 0.11; to U31C G33A U48C A56G, 0.2.
U31C U41G A64U: the self-cleavage came to 0.23.
To U31C A35C C59A belongs 0.1; to U31C U51A A64G U80C, 0.39; to C32U A56U A57G, 0.15.
To U31C U43C U54C belongs 0.23.
To U31C C38U C44U A75G A77U belongs 0.06.
On to A35G U43A U58C, for which the self-cleavage is 1.2.
As for U31C U41G U49C U51A C59G, the self-cleavage came to 0.16.
To C34U A45U U60A belongs 0.28.
A35G U54A A57G A75U: the self-cleavage came out at 1.28.
To A35G G53A U54C U80C belongs 1.26; to A35G G36A C38U A64G U74C U78G, 0.39; to A35G A47G U49A G53A G63U, 1.3.
To U31C C32A A47G A65G U69C U74A U78C belongs 0.07; to C32A A57G A64U, 0.17.
To A35G C37A U41C U54A belongs 0.96; to A35G U41C U54C A64U, 0.97; to A35G U41C A57U A65G, 0.86.
In the case of A35G G36A A45G U58C, the self-cleavage stood at 0.19.
To U31A U66C U78C U80C belongs 0.1.
To C34U U41C A75U belongs 0.26.
To U31G G52C U72C U78A belongs 0.9; to A35G U41C A45G U54C U74G, 1.29; to U31C A56G U69A, 0.25.
For U31C U43C C44G A47G A75G, the self-cleavage came out at 0.
On to G33C A35G U54C U58C, for which the self-cleavage was 0.08.
To G33C U67C U80A belongs 0.27.
